# According to PMC5155141:
# Sequences of proteins named here, by UniProt entry; tags and fusion partners are left off.
# UniProt Q9ULZ3: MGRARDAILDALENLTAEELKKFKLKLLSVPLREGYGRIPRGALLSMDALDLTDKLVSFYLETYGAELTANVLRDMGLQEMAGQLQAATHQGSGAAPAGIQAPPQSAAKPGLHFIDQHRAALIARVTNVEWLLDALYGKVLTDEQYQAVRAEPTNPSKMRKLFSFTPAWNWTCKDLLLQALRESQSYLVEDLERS
# UniProt P29466: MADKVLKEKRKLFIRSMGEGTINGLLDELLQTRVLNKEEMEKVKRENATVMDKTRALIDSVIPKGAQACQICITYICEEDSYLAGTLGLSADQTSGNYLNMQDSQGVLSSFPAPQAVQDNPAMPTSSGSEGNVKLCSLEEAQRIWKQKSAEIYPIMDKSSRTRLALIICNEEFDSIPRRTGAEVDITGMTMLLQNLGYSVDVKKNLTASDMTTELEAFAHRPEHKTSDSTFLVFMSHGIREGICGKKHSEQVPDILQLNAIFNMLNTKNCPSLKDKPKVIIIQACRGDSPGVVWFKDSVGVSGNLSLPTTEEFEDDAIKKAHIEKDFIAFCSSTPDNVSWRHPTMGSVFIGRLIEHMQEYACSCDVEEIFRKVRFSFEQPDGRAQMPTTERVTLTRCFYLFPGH
# UniProt Q96P20: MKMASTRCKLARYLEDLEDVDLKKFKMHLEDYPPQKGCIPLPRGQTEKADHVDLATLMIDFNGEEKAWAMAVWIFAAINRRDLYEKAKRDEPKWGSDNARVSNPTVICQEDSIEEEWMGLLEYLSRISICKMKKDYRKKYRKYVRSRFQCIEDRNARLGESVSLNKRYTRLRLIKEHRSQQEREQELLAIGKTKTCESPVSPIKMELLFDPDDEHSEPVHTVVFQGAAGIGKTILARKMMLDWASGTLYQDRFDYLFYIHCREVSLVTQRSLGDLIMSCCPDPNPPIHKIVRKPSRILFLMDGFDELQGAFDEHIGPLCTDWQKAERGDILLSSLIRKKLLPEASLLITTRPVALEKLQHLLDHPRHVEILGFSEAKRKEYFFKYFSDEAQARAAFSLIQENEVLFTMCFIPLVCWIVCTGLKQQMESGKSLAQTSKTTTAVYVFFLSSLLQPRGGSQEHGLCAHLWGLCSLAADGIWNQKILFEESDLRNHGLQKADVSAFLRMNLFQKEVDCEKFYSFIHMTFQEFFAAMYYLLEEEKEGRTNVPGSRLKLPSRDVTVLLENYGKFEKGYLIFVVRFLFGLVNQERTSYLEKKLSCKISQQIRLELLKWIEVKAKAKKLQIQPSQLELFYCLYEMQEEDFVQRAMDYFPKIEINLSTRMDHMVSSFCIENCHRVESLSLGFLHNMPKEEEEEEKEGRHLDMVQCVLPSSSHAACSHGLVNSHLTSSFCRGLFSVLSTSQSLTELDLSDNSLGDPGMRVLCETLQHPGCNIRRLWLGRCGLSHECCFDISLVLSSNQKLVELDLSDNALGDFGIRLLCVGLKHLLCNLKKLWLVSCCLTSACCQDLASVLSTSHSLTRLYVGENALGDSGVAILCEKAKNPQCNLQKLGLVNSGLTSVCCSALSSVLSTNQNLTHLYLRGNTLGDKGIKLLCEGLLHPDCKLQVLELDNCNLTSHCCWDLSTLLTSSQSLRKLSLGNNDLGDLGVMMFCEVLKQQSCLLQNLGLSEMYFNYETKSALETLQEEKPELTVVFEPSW
# Results are given in words; binding and its absence hold for the method and conditions named. Binding seen in cells or lysates may run through a third protein. Some binding calls cover weakened binding; strength is not graded here. For part of these data: Where a sequence is shown, tags or fusion partners need not be part of it.
# T1: Flag-TRIM31 (human) (UniProt Q9BZY9)
# T1 sequence: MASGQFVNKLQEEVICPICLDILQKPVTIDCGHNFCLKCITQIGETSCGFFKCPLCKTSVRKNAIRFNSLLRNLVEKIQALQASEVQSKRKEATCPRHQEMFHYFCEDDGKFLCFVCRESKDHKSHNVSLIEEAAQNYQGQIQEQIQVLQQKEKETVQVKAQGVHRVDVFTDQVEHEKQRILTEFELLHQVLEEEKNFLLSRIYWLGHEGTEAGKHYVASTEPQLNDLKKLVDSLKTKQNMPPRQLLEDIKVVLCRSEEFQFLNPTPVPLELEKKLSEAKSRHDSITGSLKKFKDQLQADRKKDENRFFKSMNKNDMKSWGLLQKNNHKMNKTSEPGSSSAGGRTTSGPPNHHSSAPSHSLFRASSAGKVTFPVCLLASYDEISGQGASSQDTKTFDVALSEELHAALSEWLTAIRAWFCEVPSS
# T2: Flag-tagged TRIM31 (in vitro translated) (human) (UniProt Q9BZY9)
# T2 sequence: T1 sequence
# T3: endogenous TRIM31 (THP-1 cells) (human (endogenous in THP-1)) (UniProt Q9BZY9)
# T3 sequence: T1 sequence
# T4: endogenous TRIM31 (mouse peritoneal macrophages) (mouse (endogenous in peritoneal macrophages)), Q8R0K2
# T4 chain: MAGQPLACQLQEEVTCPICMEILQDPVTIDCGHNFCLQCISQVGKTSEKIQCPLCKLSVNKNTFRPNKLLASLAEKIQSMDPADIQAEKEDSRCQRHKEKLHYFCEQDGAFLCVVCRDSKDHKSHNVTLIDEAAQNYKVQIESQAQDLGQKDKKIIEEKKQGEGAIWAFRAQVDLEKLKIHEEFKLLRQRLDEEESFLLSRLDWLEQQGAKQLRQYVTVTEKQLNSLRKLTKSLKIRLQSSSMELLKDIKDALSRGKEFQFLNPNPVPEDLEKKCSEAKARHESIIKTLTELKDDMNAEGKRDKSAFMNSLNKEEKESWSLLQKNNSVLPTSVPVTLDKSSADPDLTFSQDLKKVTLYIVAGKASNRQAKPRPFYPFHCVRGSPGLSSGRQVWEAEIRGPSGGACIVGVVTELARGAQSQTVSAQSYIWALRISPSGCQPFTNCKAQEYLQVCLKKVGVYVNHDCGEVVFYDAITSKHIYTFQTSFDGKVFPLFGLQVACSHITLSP
# B1: endogenous NLRP3 (mouse peritoneal macrophages), Q8R4B8 1-1033 (protein)
# chain: MTSVRCKLAQYLEDLEDVDLKKFKMHLEDYPPEKGCIPVPRGQMEKADHLDLATLMIDFNGEEKAWAMAVWIFAAINRRDLWEKAKKDQPEWNDTCTSHSSMVCQEDSLEEEWMGLLGYLSRISICKKKKDYCKMYRRHVRSRFYSIKDRNARLGESVDLNSRYTQLQLVKEHPSKQEREHELLTIGRTKMRDSPMSSLKLELLFEPEDGHSEPVHTVVFQGAAGIGKTILARKIMLDWALGKLFKDKFDYLFFIHCREVSLRTPRSLADLIVSCWPDPNPPVCKILRKPSRILFLMDGFDELQGAFDEHIGEVCTDWQKAVRGDILLSSLIRKKLLPKASLLITTRPVALEKLQHLLDHPRHVEILGFSEAKRKEYFFKYFSNELQAREAFRLIQENEVLFTMCFIPLVCWIVCTGLKQQMETGKSLAQTSKTTTAVYVFFLSSLLQSRGGIEEHLFSDYLQGLCSLAADGIWNQKILFEECDLRKHGLQKTDVSAFLRMNVFQKEVDCERFYSFSHMTFQEFFAAMYYLLEEEAEGETVRKGPGGCSDLLNRDVKVLLENYGKFEKGYLIFVVRFLFGLVNQERTSYLEKKLSCKISQQVRLELLKWIEVKAKAKKLQWQPSQLELFYCLYEMQEEDFVQSAMDHFPKIEINLSTRMDHVVSSFCIKNCHRVKTLSLGFFHNSPKEEEEERRGGRPLDQVQCVFPDTHVACSSRLVNCCLTSSFCRGLFSSLSTNRSLTELDLSDNTLGDPGMRVLCEALQHPGCNIQRLWLGRCGLSHQCCFDISSVLSSSQKLVELDLSDNALGDFGIRLLCVGLKHLLCNLQKLWLVSCCLTSACCQDLALVLSSNHSLTRLYIGENALGDSGVQVLCEKMKDPQCNLQKLGLVNSGLTSICCSALTSVLKTNQNFTHLYLRSNALGDTGLRLLCEGLLHPDCKLQMLELDNCSLTSHSCWNLSTILTHNHSLRKLNLGNNDLGDLCVVTLCEVLKQQGCLLQSLQLGEMYLNRETKRALEALQEEKPELTIVFEISW
# Assays:
# Flag-TRIM31 (human) = target: T1, Flag-TRIM31 (human); experiment: co-IP; HEK293T cells transfected with Flag-TRIM31 (or its mutants) and Myc-tagged partners (or NLRP3 mutants); lysates immunoprecipitated with anti-Flag antibody (Fig. 3f,h) and immunoblotted; IP buffer 1.0% Nonidet P 40, 50 mM Tris-HCl pH 7.4, 50 mM EDTA, 150 mM NaCl
# [1] = target: T2, Flag-tagged TRIM31 (in vitro translated) (human); experiment: co-IP; in vitro binding assay: in vitro translated Flag-tagged TRIM31 and NLRP3 mixed together, IP with Flag antibody, immunoblot with NLRP3 antibody
# [2] = target: T3, endogenous TRIM31 (THP-1 cells) (human (endogenous in THP-1)); experiment: co-IP; endogenous proteins from THP-1 cells; IP buffer 1.0% Nonidet P 40, 50 mM Tris-HCl pH 7.4, 50 mM EDTA, 150 mM NaCl; protein G agarose
# [3] = target: T4, endogenous TRIM31 (mouse peritoneal …); experiment: co-IP; endogenous proteins from mouse peritoneal macrophages, resting and stimulated with LPS for indicated times; IP buffer 1.0% Nonidet P 40, 50 mM Tris-HCl pH 7.4, 50 mM EDTA, 150 mM NaCl; protein G agarose; conditions: remark: other sources report otherwise
Molecule,binding (Flag-TRIM31 (human)),other results
Myc-ASC (from UniProt Q9ULZ3 1-195),no binding,–
Myc-Caspase-1 (from UniProt P29466 1-404),no binding,–
Myc-NLRP3 (from UniProt Q96P20 1-1036),binds,–
NLRP3 (in vitro translated) (from UniProt Q96P20 1-1036),–,binding [1]: binds
endogenous NLRP3 (THP-1 cells) (from UniProt Q96P20 1-1036),–,binding [2]: binds
B1,–,binding [3]: binds
